Results: publication PMC12136788
This is one part of the list.

T1: UNK ZnF1-3 (human, UniProt Q9C0B0 31-174)
T1 sequence: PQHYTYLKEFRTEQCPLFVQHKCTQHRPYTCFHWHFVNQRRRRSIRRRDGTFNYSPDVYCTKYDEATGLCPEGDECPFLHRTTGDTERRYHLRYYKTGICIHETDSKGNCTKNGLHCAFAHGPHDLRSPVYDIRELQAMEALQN

B1: chr4:38126685:38126686:+_ENSG00000065882_ENST00000510573|hu_mus|motif|central (ssRNA)
RNA: GGGAGUUCUACAGUCCGACGAUCGGUCUUCUCCAUCUGCACCAGGCCCAGGUUGGGGAGUGUGUUCUUUAUGAAGUCCACGGUGGUUUCCAGGUUCUCAUGCUGUAGAAUCAAGGGCUUAUGGCUCCCCAAAAGACUUAAAGCCAACAGAGGAUUGAGCAUCA
B2: chr3:119456006:119456007:-_ENSMUSG00000028134_ENSMUST00000029780|mus_hu|motif|central (ssRNA)
RNA: GGGAGUUCUACAGUCCGACGAUCAAUAUGAAGUACACGAGAAGGAGCACCAUCCAUUUUAUCUUCUCCUUUAAAUUUUUUACGGUCAUUACCAUUGGCUGUAACUACCAUGCUGCUCAUAUUAGAGUUCGGACUACUGAGAACCAACAGAGGAUUGAGCAUCA
B3: chr16:45382771:45382772:-_ENSMUSG00000022661_ENSMUST00000163230|mus_mus|mus_mus_mus_hu_True|78_108 (ssRNA)
RNA: GGGAGUUCUACAGUCCGACGAUCCUGAGUGUUAUUGUAAGACAAAUGGACAGGGAGAGCAUGCUUUUCAAAAAAUGUGAGCUAUUGUCUAAGACUAACAAUAUUUAUCUAGCUAUAAAAAUAAGUUAAAUGAAUAAGUUAAGACAACAGAGGAUUGAGCAUCA
B4: chr10:126435856:126435857:+_ENSMUSG00000078429_ENSMUST00000105256|mus_mus|motif|central (ssRNA)
RNA: GGGAGUUCUACAGUCCGACGAUCAGUGGAAACCCUUACCUGGCCCUUUAUCAAACUGGUCCUGUGUCCAAAGCUCCCCCGGUAAGAGGGACAGGAACGUCAGGCUUUUGAUGCGAAGCCCAAUCAGACACACACUGUGUCCCUCAACAGAGGAUUGAGCAUCA
B5: chr9:72849539:72849540:+_ENSMUSG00000034563_ENSMUST00000085350|mus_mus|motif|central (ssRNA)
RNA: GGGAGUUCUACAGUCCGACGAUCGUUCCCCAUUUCUUCCAGCUUAGGUGGUUCAAGUGUAACAAUAUCCGAAUCGUCACGGGUAGUUCCGAAAUAGACAUUGUCUUCAGGGGAAGGUGCUUCCUCCACCUCAGCUGCUGACUUCAACAGAGGAUUGAGCAUCA
B6: 212459462_212459582_644_3pUTR_ENSG00000066027_ENST00000261461|human|control|control (ssRNA)
RNA: GGGAGUUCUACAGUCCGACGAUCACUGCGACGAGCCCUGGGAGCGCUUCUGCCUCUGCGCCUUGCGGACCGAUUUCCGGGUGAAGCCGUCCACUUUCUCCGAGGCCGAGAUGGCGGCGCUGGCAGCCCCCGCCGGCGGCGACGCAACAGAGGAUUGAGCAUCA
B7: chrX:71549762:71549763:+_ENSMUSG00000019087_ENSMUST00000019231|mus_mus|mus_mus_mus_hu_False|8_108 (ssRNA)
RNA: GGGAGUUCUACAGUCCGACGAUCAAAGUGUACCACUUCUUAUUGUUAGCACAACAUCACCAGAAAACGAUAACGACAGCCAAGCAGGACAGACAGUUAAGUAGUACUUCCACACUCCCAAACUCAGAGGAACCUCAAACCUUACAACAGAGGAUUGAGCAUCA
B8: chr4:148551591:148551592:-_ENSMUSG00000063077_ENSMUST00000060537|mus_hu|mus_mus_mus_hu_False|68_68 (ssRNA)
RNA: GGGAGUUCUACAGUCCGACGAUCACCUGACAAAAUUAAAUAUCCCUGUAAAUUAGACAAUAAGCAGCAGGUAACAAAGUCUUUGCUUUGGAAUAUGUGCCAGGAAAAGUCAUCUUGUUUUUAGAUCUCAAGAGACAGUUCACACAACAGAGGAUUGAGCAUCA
B9: chr1:46159212:46159213:+_ENSG00000159596_ENST00000372025|hu_mus|hu_hu_hu_mus_True|58_108 (ssRNA)
RNA: GGGAGUUCUACAGUCCGACGAUCUCUGAUCCCACCCAAGAAAGCUAGGAAACCGGCUCCAUAAGCCAUCUGAGUGAAAGCUAAUAUGGGGAUAUAAGACUUUGUUAUUACCAUGAGAAGUGGGGGAGCAGUAAAGGGGAUUAACAACAGAGGAUUGAGCAUCA
B10: chr5:136384420:136384421:-_ENSMUSG00000051391_ENSMUST00000055808|mus_hu|FALSE|FALSE (ssRNA)
RNA: GGGAGUUCUACAGUCCGACGAUCGUACGACAGCUACAUAAUGACUCACAUUCAUGAUAUUCCAUCACUGAGGAAACUGCUAAAGAUGGUCCGUGUGUGAAAUAAUUCCUUAGAGAAACACGGAGCUGGAAAAAUAAUCACUGACAACAGAGGAUUGAGCAUCA
B11: chr17:56552419:56552420:-_ENSMUSG00000013236_ENSMUST00000086828|mus_mus|mus_mus_mus_hu_False|38_108 (ssRNA)
RNA: GGGAGUUCUACAGUCCGACGAUCAAAGUUUUUUUCUUUUAAAAAAAAUGAAAUGUCACGGGAUACAGUUACACUGAGAGUUUUAAAAGAAAGCUGGAAAAAAAAUGCAGCCCAGUGUCCCCAGGCUGCAGAGCGGGGAGGAGCCAACAGAGGAUUGAGCAUCA
B12: 21793098_21796719_1197_3pUTR_ENSMUSG00000028248_ENSMUST00000098238|mouse|control|control (ssRNA)
RNA: GGGAGUUCUACAGUCCGACGAUCUUCUUCAUCUGUGACGUCCAGGAGAAUUUCAGUUAGAAGCAUCUUUGUCAGCAACAUCAUUUGGUACUCCUUCUCCUCUUCCGUCAUCUCUGGUUCACUGUGCUCUUCUUGGGGAGCUGGCAACAGAGGAUUGAGCAUCA
B13: chr1:224612315:224612316:-_ENSG00000162923_ENST00000295024|hu_hu|FALSE|FALSE (ssRNA)
RNA: GGGAGUUCUACAGUCCGACGAUCCGUCAAUUCACAGCGUAGAACUUGAAGUGCCUCCAGGACCUUGCCAUCCUCCAGGUAUUCUAGGUACUUCUGCUGCAGCAGCAAAAACUUCAUCCUCACAAUUAUUCCCAACAACGUUUGCAACAGAGGAUUGAGCAUCA
B14: chr15:78454051:78454052:+_ENSG00000166411_ENST00000558554|hu_hu|FALSE|FALSE (ssRNA)
RNA: GGGAGUUCUACAGUCCGACGAUCAUGCUCAAUUCCACUGUAUUCUCCUUCUGUGUUCUCUCGAAUGGUCACAAUAUUUACAUCGGUGUAAGGGGUUUUAUAGCCUUUCAAGCCCAUCUUGUUCUUAUCCAUGGACUCUUUAGCCAACAGAGGAUUGAGCAUCA
B15: chr2:198365819:198365820:+_ENSG00000115541_ENST00000409468|hu_hu|FALSE|FALSE (ssRNA)
RNA: GGGAGUUCUACAGUCCGACGAUCAGUUUCAGCAGCACUCCUUUCAACCAAUACUCGGUCAAAGAGUGGAAGAAACUUUCUAAACGCUUGUCCUGCCAUUACUCCCUCCGCCUCAGACUCGUACUCUGCUCUAGUGUAGCGCCGCAACAGAGGAUUGAGCAUCA
B16: chrX:131284163:131284164:-_ENSMUSG00000050394_ENSMUST00000052431|mus_hu|motif|central (ssRNA)
RNA: GGGAGUUCUACAGUCCGACGAUCGGGGCUCGUGUUUCUAGCCAUUGAGAGGCUGGCCAAAUGGCUAUUGAUAUCCUGGCGGAAUGGAAAGCCCGCAUCCUUGGGCUCGGCAAACAACAGUUUUCCCUGAAUGAAAAGACACUUCAACAGAGGAUUGAGCAUCA
B17: chr3:133545784:133545785:-_ENSG00000154917_ENST00000285208|hu_hu|motif|central (ssRNA)
RNA: GGGAGUUCUACAGUCCGACGAUCGCACAUGUAUCUCCGUGAGGAUGUGUUUGUGGAAGGUGUAUACACAAGUCUAUCUCGGUAUAUAAUUAUGUACACACAUAUAAAAACUAAACACAUGACAUCUGAAACACGUUCAAACAUCAACAGAGGAUUGAGCAUCA
B18: 31463449_31463569_8093_3pUTR_ENSMUSG00000025609_ENSMUST00000026699|mouse|control|control (ssRNA)
RNA: GGGAGUUCUACAGUCCGACGAUCACCUGUAGACUUAUUCUAGGUUAACAAUGGAGAGCUUUUUGCCGUGCUUAGCUUUGGGAACAUGCACUAGCUCACGCUCAUUCUUCGUUGUAGUCAGAAUUCUUGGGUCAGUGCACACGCCAACAGAGGAUUGAGCAUCA
B19: 8067981_8069192_916_CDS_ENSMUSG00000022142_ENSMUST00000163765|mouse|control|control (ssRNA)
RNA: GGGAGUUCUACAGUCCGACGAUCUUGAACAAUAGGAUCAUCUUCUGAGAACGUGAACUGCAGCAAGGAAGGCACCAGGAAGGAGAGCGAGCUCUUGGAGUGAUUGAUCUUCCUACAUCUUUGACUGAACCAGCCUGCUUCUGCCAACAGAGGAUUGAGCAUCA
B20: chr13:100193533:100193534:-_ENSMUSG00000052727_ENSMUST00000064762|mus_hu|FALSE|FALSE (ssRNA)
RNA: GGGAGUUCUACAGUCCGACGAUCUUAAACAUUUGAAAAAUGUAAUUCACAGCAUUAAGUAGACUGCAUAGGUCCUCAGUGAAAGGACCCUGAAGAAGCAUUUUUUUAAACCCUCAUCAUAGUUAGCAGUGCAAAACAUAGACUCAACAGAGGAUUGAGCAUCA
B21: chr2:78760142:78760143:+_ENSMUSG00000027011_ENSMUST00000028398|mus_mus|FALSE|FALSE (ssRNA)
RNA: GGGAGUUCUACAGUCCGACGAUCGGUCCACUGUCUGGCUAUCCUGUCAUGUUCUGCUCUGUUGGUCAAAUACUGAGUGGCUAUGCUUCCGACCAGAGGAUCCGCAGGGUUGCAAUCUGUCAAAAGGGAACAAAUAGAGAGCAACAACAGAGGAUUGAGCAUCA
B22: 18624260_18624514_661_CDS_ENSMUSG00000072214_ENSMUST00000096987|mouse|control|control (ssRNA)
RNA: GGGAGUUCUACAGUCCGACGAUCAAACUGGUACACGUGGAUCCCAAACUUGUCGAUCUCCUCACGUAUUCUGUCCUUCAGCUUCCGGAUCUCACUGGGCACCAGGCAGUCAGCUUUGGCGAUGAGUGGGACGAUGUUCACCUUCAACAGAGGAUUGAGCAUCA

Target: T1, UNK ZnF1-3
Assay: nsRBNS (natural sequence RNA bind-n-seq); RBNS binding buffer (assumed for nsRBNS): 25 mM Tris pH 7.5, 150 mM KCl, 3 mM MgCl2, 0.01% Triton X-100, 500 ug/ml BSA, 20 U/ml SUPERase-In, 4 C; UNK is unkempt and MSI1 is Musashi-1; names of the RNAs are library labels; protein concentration not given here; high values mean tight binding

Compared with B1, B2 is higher in binding signal: 0.931 enrichment R for the first, 2.54 enrichment R for the second.

Compared with B3, B4 is lower in binding signal: 2.14 enrichment R for the first, 0.733 enrichment R for the second.

First: B5
Second: B6
The binding signal of the first is lower: 0.712 enrichment R for the first, 0.745 enrichment R for the second.

First: B7
Second: B8
The binding signal of the first is higher: 1.69 enrichment R for the first, 1.14 enrichment R for the second.

Compared with B9, B10 is lower in binding signal: 1.34 enrichment R for the first, 1.28 enrichment R for the second.

Going from B11 to B12, the binding signal falls from 1.92 enrichment R to 0.675 enrichment R.

Going from B13 to B14, the binding signal falls from 0.855 enrichment R to 0.577 enrichment R.

Compared with B15, B16 is lower in binding signal: 1.03 enrichment R for the first, 0.998 enrichment R for the second.

First: B17
Second: B18
The binding signal of the first is higher: 0.904 enrichment R for the first, 0.334 enrichment R for the second.

First: B19
Second: B20
The binding signal of the first is higher: 1.45 enrichment R for the first, 0.544 enrichment R for the second.

First: B21
Second: B22
The binding signal of the first is higher: 1.58 enrichment R for the first, 0.71 enrichment R for the second.
